Some of the results follow. Sequences were assembled here from the parent chain. Inactive controls read about 0.05.
B1: TEV protease; numbered along this chain (parent)
chain: MGESLFKGPRDYNPISSSICHLTNESDGHTTSLYGIGFGPFIITNKHLFRRNNGTLVVQSLHGVFKVKDTTTLQQHLVDGRDMIIIRMPKDFPPFPQKLKFREPQREERICLVTTNFQTKSMSSMVSDTSCTFPSGDGIFWKHWIQTKDGQCGSPLVSTRDGFIVGIHSASNFTNTNNYFTSVPKNFMELLTNQEAQQWVSGWRLNADSVLWGGHKVFMVKPEEPFQPVKEATQL

Variants of: B1
Assay: raw area under fraction-flipped curve 0-4 h after induction (AUC4h, not background-subtracted), DNA-recorder readout of cleavage of the substrate (dimensionless); higher = more cleavage of the substrate by the protease variant
Conditions: temperature: 34 °C; time window: 0-4 h after rhamnose induction
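Further: Bxb1 expression induced with 0.2% (w/v) L-rhamnose at OD600 near 0.5, cultures sampled hourly, flipped fraction per protease–substrate barcode pair counted by paired-end Illumina sequencing.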

Variant	area with substrate ENLYFQC	area with substrate ENLYFQD	area with substrate ENLYFQH	area with substrate ENLYFQI	area with substrate ENLYFQK	area with substrate ENLYFQL	area with substrate ENLYFQM	area with substrate ENLYFQN	area with substrate ENLYFQP	area with substrate ENLYFQR	area with substrate ENLYFQS	area with substrate ENLYFQT	area with substrate ENLYFQV	area with substrate ENLYFQW	area with substrate ENLYFQE	area with substrate ENLYFQF	area with substrate ENLYFQG	area with substrate ENLYFQQ	area with substrate ENLYFQY
MGESLFKGPRDYNPISSSICHLTNESDGHTTKLYGIGFGPFIITNKHLFRRNNGTLVVQSLHGVFKVKDTTTLQQHLVDGRDMIIIRMPKDFPPFPQKLKFREPQREERICLVTTNFQTKSMSSMVSDTSCTFPSGDGIFWKHWIQTKDGQCGSPLVSTRDGFIVGIHSASNFTNTNNYFTSVPKNFMELLTNQEAQQWVSGWRLNADSVLWGGHKVFMVKPEEPFQPVKEATQL [S32K]	0.151	0.0775	0.0888	0.06	0.0654	0.0661	0.0894	0.0756	0.042	0.0507	0.11	0.0694	0.0633	0.0692	–	–	–	–	–
MGESLFKGPRDYNPISSSICHLTNESDGHTTSLYGIGRGPFIITNKHLFRRNNGTLVVQSLHGVFKVKDTTTLQQHLVDGRDMIIIRMPKDFPPFPQKLKFREPQREERICLVTTNFQTKSMSSMVSDTSCTFPSGDGIFWKHWIQTKDGQCGSPLVSTRDGFIVGIHSASNFTNTNNYFTSVPKNFMELLTNQEAQQWVSGWRLNADSVLWGGHKVFMVKPEEPFQPVKEATQL [F38R]	0.0832	–	0.0623	0.056	–	0.055	0.0567	–	–	0.0545	0.0739	0.0583	0.0428	–	0.0549	0.0541	0.0554	0.0567	–
MGESLFKGPRDYNPISSSICHLTNESDGHTTSLYGIGFGPFIITNKHLFRRNNGTLVVQSLHGVFKVKDTTTLQQHLVDGRDMIIIRMPKDFPPFPQKLKFREPQREERICLVTTNFQTKSMSSMVSDTSCTFPSGDGIFWKHWIQTKDGQCGSPLVSTRDGFIVGIHSASNFTNTNNYFTSVPKNFMELLTNQEAQQWVSGWRLNADSVLWGGHKVFMVEPEEPFQPVKEATQL [K221E]	0.102	0.0202	0.0652	0.0484	0.0411	0.0478	0.0441	0.0803	0.0652	0.0509	0.107	0.0627	0.0536	0.0511	–	–	0.0894	–	0.0492
MGESLFKGPRDYNPISSSICHLTNESDGHTTSLYGIGFGPFIITNKHLFRRNNGTLVVQSLHGVFKVKDTTTLQQHLVDGRDMIIIRMPKDFPPFPQKLKFREPQREERICLVTTNFQIKSMSSMVSDTSCTFPSGDGIFWKHWIQTKDGQCGSPLVSTRDGFIVGIHSASNFTNTNNYFTSVPKNFMELLTNQEAQQWVSGWRLNADSVLWGGHKVFMVKPEEPFQPVKEATQL [T119I]	0.151	0.0675	–	0.0651	0.03	–	–	0.0855	–	0.0575	0.106	–	–	0.0587	–	–	0.0882	–	–
MGESLFKGPRDYNPISSSICHLTNESDGHTTSLYGIGFGPFIITNKHLFRRNNGTLVVQSLHGVFKVKDTTTLQQHLVDGRDMIIIRMPKDFPPFPQKLKFREPQREERICLVTTNFQEKSMSSMVSDTSCTFPSGDGIFWKHWIQTKDGQCGSPLVSTRDGFIVGIHSASNFTNTNNYFTSVPKNFMELLTNQEAQQWVSGWRLNADSVLWGGHKVFMVKPEEPFQPVKEATQL [T119E]	0.084	–	–	0.0657	0.0612	–	–	–	–	0.0401	0.102	–	–	–	–	–	0.103	–	–
MGESLFKGPRDYNPISSSICHLTNESDGHTTSLYGIGFGPFIITNKHLFRRNNGTLVVQSLHGVFKVKDTTTLQQHLVDDRDMIIIRMPKDFPPFPQKLKFREPQREERICLVTTNFQTKSMSSMVSDTSCTFPSGDGIFWKHWIQTKDGQCGSPLVSTRDGFIVGIHSASNFTNTNNYFTSVPKNFMELLTNQEAQQWVSGWRLNADSVLWGGHKVFMVKPEEPFQPVKEATQL [G80D]	0.145	0.0817	0.0882	0.0552	–	0.0708	0.102	0.0857	0.0646	0.0698	0.124	–	0.0639	0.0722	0.06	0.0868	–	–	0.0782
MGESLFKGPRDYNPISSSICHLTNESDGHTTSLYGIGFGPFIITNKHLFRRNNGTLVVQSLHGVFKVKDTTTLQQHLVDGRDMIIIRMPKDFPPFQQKLKFREPQREERICLVTTNFQTKSMSSMVSDTSCTFPSGDGIFWKHWIQTKDGQCGSPLVSTRDGFIVGIHSASNFTNTNNYFTSVPKNFMELLTNQEAQQWVSGWRLNADSVLWGGHKVFMVKPEEPFQPVKEATQL [P96Q]	0.164	0.0771	–	–	–	0.0498	–	0.102	–	0.0757	0.107	–	–	0.0702	0.0743	–	–	–	–
MGESLFKGPRDYNPISSSICHLTNESDGHTTSLYGIGFGPFIITNKHLFRRNNGTLVVQSLHGVFKVKDTTTLQQHLVDGRDMIIIRMPKDFPPFPQKLKFREPQREERICLVTTNFQTKSMSSMVSDTSCTFPSGDGIFWKHWIQTKDGQCGSPLVSTRDGFIVGIHSASNFTNTNNYFTSVPKNFMELLTNQEAQFWVSGWRLNADSVLWGGHKVFMVKPEEPFQPVKEATQL [Q198F]	0.0949	0.0814	0.0649	0.0566	0.0614	0.063	0.0872	0.068	0.0547	0.064	0.091	0.0615	0.0657	0.0618	–	–	0.0809	0.0744	0.0669
MGESLFKGPRDYNPISSSICHLTNESDGHTTSLYGIGFGPFIITNKHLFRRNNGTLVVQSLHGVFKVKDTTTLQQHLVDGRDMIIIRMPKDFPPFPQKLKFREPQREQRICLVTTNFQTKSMSSMVSDTSCTFPSGDGIFWKHWIQTKDGQCGSPLVSTRDGFIVGIHSASNFTNTNNYFTSVPKNFMELLTNQEAQQWVSGWRLNADSVLWGGHKVFMVKPEEPFQPVKEATQL [E108Q]	0.099	0.0537	0.0717	0.0486	0.0593	0.0552	0.0684	0.0676	–	0.0571	0.0729	0.0606	–	0.0635	–	0.0635	0.0766	–	–
MGESLFKGPRDYNPISSSICHLTNESDGHTTSLYGIGFGPFIITNKHLFRRNNGTLVVQSLHGVFKVKDTTTLQQHLVDGRDMIIIRMPKDFPPFPQKLKFREPQREERICLVTTNFQTKSMSSMVSDTSCTFPSGDGIFWKHWIQTKDGQCGSPLVSTRDGFIVGIHSASNFTNTNNYFTSVPKNFMELLTNQEAQQWVSGWRLNACSVLWGGHKVFMVKPEEPFQPVKEATQL [D208C]	0.0622	–	0.051	0.0389	0.0643	0.0475	0.0677	0.0587	0.0534	–	0.0708	0.0713	0.0652	0.0676	–	–	0.0745	0.0478	0.0632

— the supplement of paper PMC12217912
